Test results as given in patent US20210363269A1 (ALX ONCOLOGY, published 2021).

How the values were obtained:
[1] = biological target: T1, complex of high affinity SIRP-α variant (SEQ ID NO:17) pre-mixed with CD47 (SEQ ID NO:16) (human, UniProt P78324 31-149; Q08722 fragment); test: SPR, scFv-Fc captured on anti-human IgG Fc, analyte 100 nM high affinity SIRPa pre-mixed with 500 or 1500 nM CD47
T1 construct: also called SIRP-α/CD47 complex (SPR screen)
Method: To assess if antibodies can block binding of SIRPα to CD47, an SPR screen was also carried out, in addition to screening by ELISA. Antibody capture was carried out using an anti-human IgG-Fc immobilized GLC surface prepared as described above. A SIRPα variant (SEQ ID NO:17) engineered to bind CD47 (SEQ ID NO:16) with high nM affinity was used for the screen rather than a wildtype SIRP-α. […] Phosphate buffered saline (PBS, pH 7.4) supplemented with 0.01% Tween-20 (PBST) as running buffer.
First, approximately 5-10 uL of pre-filtered media containing the antibodies in 10 mM sodium acetate buffer (pH4.5) was injected for 2 mins at 30 ul/min and captured over the anti-human IgG-Fc immobilized GLC surface followed by a brief buffer flow of 1 min at 100 uL/min. […] For the description below, SIRP-α refers to SEQ ID NO:17.

[2] = biological target: T2, NOD mouse SIRP-α D1 domain (mouse (NOD strain)); test: ELISA, target coated on the plate, scFv-Fc titrated from 0.008 to about 1 µg/ml, OD 405
T2 construct: also called mouse NOD SIRPα
T2 chain: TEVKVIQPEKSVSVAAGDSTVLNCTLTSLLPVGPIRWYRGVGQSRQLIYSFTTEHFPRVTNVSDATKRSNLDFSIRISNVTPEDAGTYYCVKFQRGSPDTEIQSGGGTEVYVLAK
Method: (§1) ELISA assays were carried out to screen binding of antibody clones to SIRP analytes and SIRP-α:CD47 complex. […] Plates were blocked with PBS™ (Phosphate Buffered Saline pH 7.4, 0.05% Tween®20 polysorbate, 3% milk), 50 ul of supernatant containing the secreted scFv-Fc are added for 1 hr at room temp. Plates were washed with PBST. 50 ul of anti-hFc-HRP (1:5000 Rockland 609-4303) added for 1 hr at room temp. Plates were washed with PBST. TMB was developed for 5 min and stopped with 1N HCl. ELISA results were read using BioTek Synergy H1 Hybrid Reader. The corresponding proteins used for the assay and described here are: human SIRPα V1 (SEQ ID NO: 5); human SIRPα V2 (SEQ ID NO:6); cynomolgus SIRPα (SEQ ID NO:11); mouse NOD SIRPα (SEQ ID NO: 8); human SIRPγ (SEQ ID NO: 15); CD47 (SEQ ID NO: 16); high affinity SIRPα V1 (SEQ ID NO: 42); high affinity SIRPα V2 (SEQ ID NO:17).

human SIRPγ isoform 1 [3] = biological target: T3, human SIRPγ isoform 1 (human, UniProt Q9P1W8 29-147); test: as above
Sequence of human SIRPγ isoform 1 (Q9P1W8 29-147 limits assumed): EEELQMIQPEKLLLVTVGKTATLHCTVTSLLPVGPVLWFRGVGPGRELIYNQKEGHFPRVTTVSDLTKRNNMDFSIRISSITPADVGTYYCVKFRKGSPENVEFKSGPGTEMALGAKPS
T3 construct: also called human SIRP-γ v1; sirpg
Method: as §1

[4] = biological target: T4, human SIRP-α v2 D1 domain (human); test: SPR, captured scFv-Fc
T4 construct: also called human v2; human α v2
Outline: (§2)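 Antibody clones in scFv-Fc format were captured from pre-filtered culture media onto anti-human IgG Fc, amine-coupled (about 4000 RU) on a GLC chip of a ProteOn XPR36 instrument. SIRP analytes were flowed in PBS pH 7.4 with 0.01% Tween-20 at 25° C. Data were double-referenced against interspot and buffer-blank responses. Dissociation rate constants (koff) were derived by fitting a 1:1 Langmuir model.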

[5] = biological target: T5, NOD mouse SIRP-α D1 domain (mouse (NOD strain)); test: SPR, captured scFv-Fc
T5 chain: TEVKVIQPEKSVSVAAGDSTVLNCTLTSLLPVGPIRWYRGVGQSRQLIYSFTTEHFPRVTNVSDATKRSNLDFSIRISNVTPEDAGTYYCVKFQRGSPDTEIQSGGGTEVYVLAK
Outline: as §2

[6] = biological target: T6, human SIRP-α v1 D1 domain (human, UniProt P78324 31-149); test: SPR, captured scFv-Fc, 100 nM analyte
T6 construct: also called human v1; human α v1

[7] = biological target: T7, high affinity SIRP-α D1 variant CV1-3 (human); test: SPR, captured scFv-Fc, 100 nM analyte
T7 chain: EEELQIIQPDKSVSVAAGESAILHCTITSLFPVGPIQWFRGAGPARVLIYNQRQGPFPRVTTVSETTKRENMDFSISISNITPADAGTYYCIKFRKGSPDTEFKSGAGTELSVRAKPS

[8] = biological target: T8, cynomolgus SIRP-α D1 domain (SEQ ID NO:12) (cynomolgus, UniProt Q5TFQ8 30-148 (human entry), limits assumed); test: SPR, captured scFv-Fc, 100 nM analyte
T8 construct: also called cyno2; Cyno2
T8 chain: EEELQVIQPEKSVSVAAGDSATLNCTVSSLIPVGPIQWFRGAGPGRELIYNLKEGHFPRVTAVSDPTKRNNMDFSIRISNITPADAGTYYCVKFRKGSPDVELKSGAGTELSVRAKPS

[9] = biological target: T9, mouse 129 SIRP-α D1 domain (mouse (129 strain), UniProt P97797 32-150); test: SPR, captured scFv-Fc, 100 nM analyte
T9 construct: also called m129
T9 chain: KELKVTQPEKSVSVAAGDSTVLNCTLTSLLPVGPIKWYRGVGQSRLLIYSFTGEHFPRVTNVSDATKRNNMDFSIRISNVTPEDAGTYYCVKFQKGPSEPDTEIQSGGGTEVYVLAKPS

[10] = biological target: T10, C57BL/6 mouse SIRP-α D1 domain (mouse (C57BL/6 strain), UniProt P97797 32-148); test: SPR, captured scFv-Fc, 100 nM analyte
T10 sequence: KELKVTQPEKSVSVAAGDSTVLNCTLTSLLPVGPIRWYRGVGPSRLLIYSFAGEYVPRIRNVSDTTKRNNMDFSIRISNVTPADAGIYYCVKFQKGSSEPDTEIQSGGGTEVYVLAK

[11] = biological target: T11, cynomolgus SIRP-α D1 domain (SEQ ID NO:11) (cynomolgus, UniProt Q5TFQ8 30-148 (human entry), limits assumed); test: SPR, captured scFv-Fc, 100 nM analyte; LB = very low binding
T11 construct: also called cyno1
T11 chain: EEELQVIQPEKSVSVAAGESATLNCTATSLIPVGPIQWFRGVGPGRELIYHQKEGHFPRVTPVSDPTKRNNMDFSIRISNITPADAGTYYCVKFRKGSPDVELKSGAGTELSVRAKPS
Method: (§3) Binding of the antibody clones to various SIRP proteins was determined using surface plasmon resonance (SPR) detection on a ProteOn XPR36 instrument (Bio-Rad, Hercules, Calif.) using phosphate buffered saline (PBS, pH 7.4) supplemented with 0.01% Tween-20 (PBST) as running buffer. The pre-filtered media containing the secreted antibodies was used directly for the assay. First, anti-Human IgG Fc (BR-1008-39, GE Healthcare) was amine-coupled onto a GLC sensor chip to generate the capture surfaces for the antibodies. About 4000 RU per flow cell of immobilized anti-human IgG Fc is achieved. Each clone is screened using the same method as follows.
(§4) (1) ‥5-10 uL of pre-filtered media in 10 mM sodium acetate buffer (pH4.5) was injected for 2 mins at 30 ul/min;
(§5) The koff rates of binding of each clone to each SIRP analyte were determined using SPR (Table C). The SPR screening conditions have been described herein, and the Koff values were determined using Langmuir kinetic fittings. The CD47 blocking properties (block, non-block, kick-off) are described in the last column of the Table C. Each antibody is identified according to its corresponding SEQ ID NO. SIRP analyte sequences are as follows: CV1-3, SEQ ID NO:18; v1, SEQ ID NO:5; v2, SEQ ID NO:6; cyno1, SEQ ID NO:11; cyno2, SEQ ID NO:12; m129, SEQ ID NO:7; NOD, SEQ ID NO: 8; BL6, SEQ ID NO:9; sirpb1, SEQ ID NO:13; sirpg, SEQ ID NO:15.

human SIRPγ isoform 1 [12] = biological target: T12, human SIRPγ isoform 1 (human, UniProt Q9P1W8 29-147); test: SPR, captured scFv-Fc, 100 nM analyte
T12 construct: also called sirpg; sirp-g

[13] = biological target: T4, human SIRP-α v2 D1 domain; test: SPR, captured scFv-Fc, 100 nM analyte
[14] = biological target: T11, cynomolgus SIRP-α D1 domain (SEQ ID …); test: SPR, captured scFv-Fc, 100 nM analyte
[15] = biological target: T5, NOD mouse SIRP-α D1 domain; test: SPR, captured scFv-Fc, 100 nM analyte
human SIRPβ isoform 1 = biological target: T13, human SIRPβ isoform 1 (human, UniProt O00241 30-148); test: SPR, captured scFv-Fc, 100 nM analyte
Sequence of human SIRPβ isoform 1 (O00241 30-148 limits assumed): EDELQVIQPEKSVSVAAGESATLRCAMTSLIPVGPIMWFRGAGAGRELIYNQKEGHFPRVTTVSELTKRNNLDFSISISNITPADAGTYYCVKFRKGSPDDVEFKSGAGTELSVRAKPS
T13 construct: also called sirpb1; Sirpb1

[16] = biological target: T7, high affinity SIRP-α D1 variant CV1-3; test: SPR, captured scFv-Fc, 100 nM analyte; LB = very low binding
Method: as §3, §4, §5

| Binder | binding result [1] | binding result [2] | binding result (human SIRPγ isoform 1 [3]) | binding result [4] | binding result [5] | koff [6] [s⁻¹] | koff [7] [s⁻¹] | koff [8] [s⁻¹] | koff [9] [s⁻¹] | koff [10] [s⁻¹] | binding result [11] | koff (human SIRPγ isoform 1 [12]) [s⁻¹] | koff [13] [s⁻¹] | koff [14] [s⁻¹] | koff [15] [s⁻¹] | koff (human SIRPβ isoform 1) [s⁻¹] | binding result [16] |
| --- | --- | --- | --- | --- | --- | --- | --- | --- | --- | --- | --- | --- | --- | --- | --- | --- | --- |
| S119 (scFv, scFv-Fc, whole entry; tested as secreted medium; also called clone S119) scFv: EIVLTQSPATLSVSPGERATFSCRASQNVKNDLAWYQQRPGQAPRLLIYAARIRETGIPERFSGSGSGTEFTLTITSLQSEDFAVYYCQQYYDWPPFTFGGGTKVEIKGQSSRSSGGGGSSGGGGSDVQLLESGGGVVQPGGSLRLSCAASGFSFSNFAMTWVRQAPGEGLEWVSTIGSGDTYYADSVKGRFTISRDNSKNTLYLQMNSLRAEDTAVYYCAKDSTVSWSGDFFDYWGLGTLVTVSSSL[letters of human IgG1 Fc with C220S T223P (EU numbers) and a few adjoining residues left out] | no binding | – | – | – | – | – | – | – | – | – | – | – | – | – | – | – | – |
| S128 (scFv, scFv-Fc, whole entry; tested as secreted medium; also called clone S128) scFv: ETVLTQSPATLSVSPGERATLSCRASQTVGSKLAWHQQKPGQAPRLLIYDASNRATGIPDRFSGSGSGTDFTLTISSLQTEDSAVYYCQQYYYWPPYRFGGGTKVEIKGQSSRSSGGGGSSGGGGSDVQLVESGGGVVRPGESLRLSCAASGFSFRSYAMNWVRQAPGEGLEWVSRIDSGGGGTDYADSVKGRFTISRDNSKNTLYLQMNSLRAEDTAVYYCAKQYDWNSFFDYWGLGAPVTVSSSL[letters of human IgG1 Fc with C220S (EU numbers) and a few adjoining residues left out] | – | no binding (tested: about 1 µg/ml) | no binding (tested: about 1 µg/ml) | – | – | – | – | – | – | – | – | – | – | – | – | – | – |
| S2 scFv-Fc (scFv) scFv: AVTQPASVSANPGETVRITCSGDSSSYYSWHQQKSPGSAPVSVIYSNTDRPSDIPSRFSGSASGSTATLTITGVQAEDEAVYFCGAYDSSSDSDIFGAGTTLTVLGQSSRSSGGGGSSGGGGSMAAVTLDESGGGLQTPGGGLSLVCKASGFDFSNFNMAWVRQGPGKGLEYVAEISDTGSTPYYGSAVQGRATISRDNGQSTVRLQLNNLRAEDTGTYFCTRNFGSSVSSIDAWGHGTEVIVSSSL[letters of human IgG1 Fc with C220S (EU numbers) and a few adjoining residues left out] | – | – | – | no binding (tested: 100 nM) | no binding (tested: 100 nM) | 0.00252 | 0.149 | 0.00559 | 0.0142 | 0.00885 | binds | – | – | – | – | – | – |
| S8 scFv-Fc (scFv) scFv: AVTQPSSVSANPGETVEITCSGSSTYYGWYQQKSPGSAPVTVIYDNDKRPSDIPSRFSGSKSGSTHTLIITGVQVEDEAVYFCGNEDNNYVAIFGAGTTLTVLGQSSRSSGGGGSSGGGGSMAAVTLDESGGGLQTPGGALSLVCKASGFTFSSYNMGWVRQAPGKGLEFVAGIYASGSSTDTDTTYGPAVAGRATISRDNGQSTVRLQLNNLRAEDTGTYYCAKAAGGCSTHTCTAYIADSIDAWGHGTEVIVSSSL[letters of human IgG1 Fc with C220S (EU numbers) and a few adjoining residues left out] | – | – | – | – | – | 0.000114 | – | 0.000612 | 0.0129 | 0.00696 | – | 0.000323 | 0.000142 | 0.00415 | 0.00179 | 9.3e-05 | binds |
| S13 scFv-Fc (scFv) scFv: AVTQPASVSANPGETVKITCSGSSSYYGWYRQKSPGSAPVTLIYDNDKRPSGIPSRFSGSKSGSTNTLTITGVQADDEAVYYCGNEDNSYVGIFGAGTTLTVLGQSSRSSGGGGSSGGGGSMAAVTLDESGGGLQTPGGALSLVCKASGFTFSSYNMGWVRQAPDKGLEFVAGIYTGSDAGLSTTYGAAVQGRATISRDNGQSTVRLQLNNLGAEDTGIYFCTKSAGGCSDYNCDAYIADSIDAWGHGTEVIVSSSL[letters of human IgG1 Fc with C220S (EU numbers) and a few adjoining residues left out] | – | – | – | – | – | 0.000207 | – | 0.000501 | 0.0493 | 0.0103 | – | 0.000402 | 0.000291 | 0.00184 | 0.00383 | 0.000135 | binds |
